Source: PubChem BioAssay (Tox21)
The shares of active, inactive and inconclusive entries below differ from those in the screen. For some of these results: A potency beside an inconclusive call is a rough fit, not a confirmed value. Calls of active or inactive are those of the source. Unless noted, calls follow the shape of the dose curve; as a rule, active = well fitted curve in the direction sought with a large enough effect in the repeat runs; inconclusive = weak or mixed curves; inactive = no such curve, though single readings can be large; an effect the other way counts as inactive or inconclusive.

Legend:
[1] = qHTS assay for identifying genotoxic compounds that show differential cytotoxicity against isogenic chicken DT40 cell lines with known DNA damage response pathways - Rev3 mutant cell line (AID 743014); settings: chicken DT40 Rev3-/- viability, CellTiter-Glo, 40 h; activity, negative = cytotoxicity: at 68.4 µM (top of the series) unless noted; also: nearly all actives have a fitted effect of over 55% in size; also: potency is read from the fitted curve at half-maximal effect; as to activity, negative = cytotoxicity: % is scaled to controls: 0 for no effect and ±100 for the full control effect
[2] = qHTS assay for identifying genotoxic compounds that show differential cytotoxicity against isogenic chicken DT40 cell lines with known DNA damage response pathways - Rad54/Ku70 mutant cell line (AID 743015); settings: DT40 Rad54/Ku70 mutant viability, CellTiter-Glo, 40 h; activity change, negative = cytotoxicity: at 66.8 µM (top of the series); also: nearly all actives have a fitted effect of over 60% in size; also: potency is read from the fitted curve at half-maximal effect; as to activity change, negative = cytotoxicity: % is scaled to controls: 0 for no effect and ±100 for the full control effect
[3] = qHTS assay to identify small molecule antagonists of the androgen receptor (AR) signaling pathway - cell viability counter screen (AID 743033; also: potency is read from the fitted curve at half-maximal effect; nearly all actives have a fitted effect of over 45% in size); settings: AR-bla HEK293 viability, CellTiter-Glo luminescence, 16 h; activity change, negative = cytotoxicity: at 58.5 µM (top of the series)
[4] = qHTS assay to identify small molecule antagonists of the thyroid receptor (TR) signaling pathway (AID 743065); also: potency is read from the fitted curve at half-maximal effect; nearly all actives have a fitted effect of over 55% in size
Outline: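 GH3.TRE-Luc rat pituitary cells (two TREs driving luciferase) were dosed with compound, then stimulated with 1 nM T3 (final) for 23.5 h at 37 C. ONE-Glo luminescence was the read-out, with CellTiter-Fluor fluorescence as the cytotoxicity counter-screen.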

Aromatase (Homo sapiens) = Aromatase (Homo sapiens) (UniProt P11511); experiment: qHTS assay to identify aromatase inhibitors (AID 743083); also: potency is read from the fitted curve at half-maximal effect; nearly all actives have a fitted effect of over 55% in size
Chain of UniProt P11511 (P11511 whole entry, looked up): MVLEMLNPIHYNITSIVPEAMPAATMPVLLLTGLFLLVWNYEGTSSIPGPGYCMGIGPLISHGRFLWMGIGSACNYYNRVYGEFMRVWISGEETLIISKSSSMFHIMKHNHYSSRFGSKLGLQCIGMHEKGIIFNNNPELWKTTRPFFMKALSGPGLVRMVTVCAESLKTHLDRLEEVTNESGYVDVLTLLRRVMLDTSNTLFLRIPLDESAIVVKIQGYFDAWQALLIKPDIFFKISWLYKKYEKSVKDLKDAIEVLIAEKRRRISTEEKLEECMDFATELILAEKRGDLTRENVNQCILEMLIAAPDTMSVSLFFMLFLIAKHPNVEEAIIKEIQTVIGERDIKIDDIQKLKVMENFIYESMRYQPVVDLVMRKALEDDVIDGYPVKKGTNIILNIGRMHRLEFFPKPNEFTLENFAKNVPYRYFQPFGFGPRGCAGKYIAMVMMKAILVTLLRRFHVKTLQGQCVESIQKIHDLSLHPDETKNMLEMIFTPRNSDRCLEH

[5] = molecular target: Androgen receptor (Homo sapiens) (UniProt P10275); experiment: qHTS assay to identify small molecule antagonists of the androgen receptor (AR) signaling pathway (AID 743035; active = well fitted inhibition curve with a large enough effect in the signal ratio in the repeat runs, not every such curve was filed as active; inconclusive = weak or mixed curves, or effect the other way; inactive = no such curve, though single readings can be large or run the other way; the % refers to the signal ratio; also: % is scaled to controls: 0 for no effect and ±100 for the full control effect); settings: HEK293 AR-UAS-bla, R1881-stimulated, beta-lactamase FRET, 16 h; activity change, negative = inhibition: at 58.5 µM (top of the series) unless noted
Chain of UniProt P10275 (P10275 whole entry, looked up): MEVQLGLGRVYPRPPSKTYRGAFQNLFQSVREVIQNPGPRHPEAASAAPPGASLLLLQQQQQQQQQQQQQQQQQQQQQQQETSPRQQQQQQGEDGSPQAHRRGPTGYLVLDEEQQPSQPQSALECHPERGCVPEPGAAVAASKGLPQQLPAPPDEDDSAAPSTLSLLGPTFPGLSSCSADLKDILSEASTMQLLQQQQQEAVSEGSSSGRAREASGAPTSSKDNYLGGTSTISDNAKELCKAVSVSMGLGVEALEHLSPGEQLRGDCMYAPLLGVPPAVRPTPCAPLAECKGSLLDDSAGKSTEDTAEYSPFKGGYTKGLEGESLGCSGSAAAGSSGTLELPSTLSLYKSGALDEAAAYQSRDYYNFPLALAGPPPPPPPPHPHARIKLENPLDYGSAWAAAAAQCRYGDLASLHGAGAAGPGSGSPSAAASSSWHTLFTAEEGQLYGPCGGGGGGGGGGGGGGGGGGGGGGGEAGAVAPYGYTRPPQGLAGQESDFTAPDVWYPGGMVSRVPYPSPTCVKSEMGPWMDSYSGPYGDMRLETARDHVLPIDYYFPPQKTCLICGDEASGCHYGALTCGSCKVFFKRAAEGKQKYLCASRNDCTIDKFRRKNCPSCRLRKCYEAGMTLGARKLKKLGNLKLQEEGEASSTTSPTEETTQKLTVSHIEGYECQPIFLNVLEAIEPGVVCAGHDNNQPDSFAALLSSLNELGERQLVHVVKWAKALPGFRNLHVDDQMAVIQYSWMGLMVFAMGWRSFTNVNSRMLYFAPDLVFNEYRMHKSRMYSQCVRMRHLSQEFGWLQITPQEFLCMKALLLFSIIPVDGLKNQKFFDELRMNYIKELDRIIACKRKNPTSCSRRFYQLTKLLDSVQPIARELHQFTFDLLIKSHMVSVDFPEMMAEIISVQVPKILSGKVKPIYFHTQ
Outline: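 Using qHTS, AR-UAS-bla GripTite HEK293 cells received compound, then R1881, and were cultured 16 h at 37C/5% CO2 before a 2 h room-temperature LiveBLAzer B/G FRET substrate step and fluorescence measurement.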

[6] = molecular target: Androgen receptor (Homo sapiens) (UniProt P10275); experiment: qHTS assay to identify small molecule agonists of the androgen receptor (AR) signaling pathway (AID 743036; active = well fitted activation curve with a large enough effect in the signal ratio in the repeat runs, with a control signal flat, not every such curve was filed as active; inconclusive = weak or mixed curves, or effect the other way; inactive = no such curve, though single readings can be large or run the other way; the % refers to the signal ratio; also: potency is read from the fitted curve at half-maximal effect; as to activation: % is scaled to controls: 0 for no effect and ±100 for the full control effect); settings: HEK293 AR-UAS-bla GripTite, beta-lactamase FRET ratio, 16 h; activation: at 62.4 µM (top of the series) unless noted
Outline: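 In this Tox21 qHTS, 2,000 HEK293 AR-bla cells per well were incubated with compounds for 16 h at 37C and 5% CO2. Fluorescence intensity was recorded 2 h after adding LiveBLAzer B/G FRET substrate at room temperature.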

[7] = molecular target: Estrogen receptor (Homo sapiens) (UniProt P03372); experiment: qHTS assay to identify small molecule antagonists of the estrogen receptor alpha (ER-alpha) signaling pathway (AID 743069; active = well fitted curve in the direction sought with a large enough effect in the signal ratio in the repeat runs, not every such curve was filed as active; inconclusive = weak or mixed curves, or effect the other way; inactive = no such curve, though single readings can be large or run the other way; the % refers to the signal ratio; also: potency is read from the fitted curve at half-maximal effect); settings: HEK293 ER-alpha-UAS-bla, beta-lactamase ratio, antagonist mode; activity, negative = inhibition: at 69.4 µM (top of the series) unless noted
Chain of UniProt P03372 (P03372 whole entry, looked up): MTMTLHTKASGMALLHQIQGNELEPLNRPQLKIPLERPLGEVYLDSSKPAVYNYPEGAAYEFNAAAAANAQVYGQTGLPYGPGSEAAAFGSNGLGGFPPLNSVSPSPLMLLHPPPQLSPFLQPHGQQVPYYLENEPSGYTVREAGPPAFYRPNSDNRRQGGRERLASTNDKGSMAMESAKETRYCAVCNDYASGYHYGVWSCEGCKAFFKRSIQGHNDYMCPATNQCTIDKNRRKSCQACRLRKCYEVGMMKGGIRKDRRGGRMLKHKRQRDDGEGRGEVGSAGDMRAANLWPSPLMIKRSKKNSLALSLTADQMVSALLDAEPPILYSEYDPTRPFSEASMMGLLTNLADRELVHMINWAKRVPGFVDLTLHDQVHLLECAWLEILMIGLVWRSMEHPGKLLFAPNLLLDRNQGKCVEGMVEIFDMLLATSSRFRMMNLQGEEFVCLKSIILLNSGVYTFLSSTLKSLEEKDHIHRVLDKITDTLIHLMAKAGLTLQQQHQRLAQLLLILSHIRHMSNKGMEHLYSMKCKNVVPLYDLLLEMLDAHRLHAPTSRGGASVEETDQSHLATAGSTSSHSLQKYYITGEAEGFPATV
Outline: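 Reporter cells (ER-alpha-bla, HEK293 background) are conditioned overnight in stripped-serum medium (2% charcoal-stripped FBS). Compound and 17beta-estradiol exposure runs 18 hr at 37C, 5% CO2.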

[8] = qHTS assay to identify small molecule antagonists of the estrogen receptor alpha (ER-alpha) signaling pathway - cell viability counter screen (AID 743074; calls by dose curve;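 also: HEK293 cells carrying ER-alpha-UAS-bla reporter stimulated with 17beta-estradiol; % is scaled to controls: 0 for no effect and ±100 for the full control effect; nearly all actives have a fitted effect of over 45% in size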)
[9] = molecular target: Estrogen receptor (Homo sapiens) (UniProt P03372); experiment: qHTS assay to identify small molecule agonists of the estrogen receptor alpha (ER-alpha) signaling pathway (AID 743075; calls by dose curve;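 also: HEK293 GripTite cells with ER-alpha and UAS-driven beta-lactamase reporter; potency is read from the fitted curve at half-maximal effect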)
[10] = molecular target: Estrogen receptor (Homo sapiens) (UniProt P03372); experiment: qHTS assay to identify small molecule agonists of the estrogen receptor alpha (ER-alpha) signaling pathway using the BG1 cell line (AID 743079); settings: BG1Luc4E2 cells, ERE-luciferase agonist, 22 h; activation: at 70.3 µM (top of the series) unless noted; also: potency is read from the fitted curve at half-maximal effect; nearly all actives have a fitted effect of over 20% in size
[11] = qHTS assay to identify small molecule antagonists of the estrogen receptor alpha (ER-alpha) signaling pathway using the BG1 cell line (AID 743080; calls by dose curve;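 also: BG1 cells stimulated with 17beta-estradiol alongside compound; nearly all actives have a fitted effect of over 25% in size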; also: potency is read from the fitted curve at half-maximal effect); settings: BG1Luc4E2 ERE-luciferase antagonist mode, luminescence; activity change, negative = inhibition: at 70.3 µM (top of the series) unless noted
Outline: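 Readout is ONE-Glo luminescence, taken 30 min at room temperature after reagent addition, preceded by a CellTiter-Fluor viability read; BG1-Luc-4E2 cells had received compound and 17beta-estradiol for 21.5 h at 37 C.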

[12] = qHTS assay to identify small molecule antagonists of the estrogen receptor alpha (ER-alpha) signaling pathway using the BG1 cell line - cell viability counter screen (AID 743081);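 also: compound given together with 17beta-estradiol as the ER stimulus; potency is read from the fitted curve at half-maximal effect; nearly all actives have a fitted effect of over 45% in size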
Tags tell the direction and shape of the fitted curve or compound fluorescence and quenching.

O=C1CCCCCCCCCCOCCCCO1
inconclusive: Potency [1] 68.6 µM [cytotoxic, single point] | Potency [2] 61.1 µM [cytotoxic, single point] | Potency [3] 49 µM [cytotoxic, partial curve, poor fit] | Potency [4] 54.5 µM [inhibitor] | Potency (Aromatase (Homo sapiens)) 21.7 µM [inhibitor, partial curve]

O=C1CCCc2c1cc1ccc3cccc4ccc2c1c34
active: Potency [6] 14 µM | Potency [10] 3.9 µM
inactive: Potency [2] | Potency [8]
inconclusive: Potency [1] 55.1 µM [cytotoxic, partial curve] | activity change, negative = inhibition [5] -0.0569% [at 78.9 µM] | Potency [7] 3.94 µM [activator, full curve, poor fit] | Potency [9] 55.6 µM [activator, partial curve] | Potency [11] 6.19 µM [rising, full curve]

CNCc1ccc(NC(=O)c2c[nH]c3c2C(=O)CCC3)cc1
active: Potency [1] 54.5 µM | Potency [2] 54.5 µM

CCCSSCCC
inactive: Potency [1] | Potency [2]

CC(C)Cn1cnc2c(N)nc3ccccc3c21
inconclusive: Potency [1] 7.5 µM [cytotoxic, full curve] | Potency [2] 11.9 µM [cytotoxic, partial curve] | activity change, negative = inhibition [5] 28.2% | Potency [10] 8.41 µM [inhibitor, partial curve, poor fit] | activity change, negative = inhibition [11] -15.8% | Potency [12] 9.44 µM [cytotoxic, full curve]
inactive: Potency [6]
